The results in this text go back to a collection of fitness landscapes (doi:10.1126/science.1257360).

Some of the results follow.

B1: PhoQ; a variant is named by its letters at X, in order, P23837 (parent)
chain: MKKLLRLFFPLSLRVRFLLATAAVVLVLSLAYGMVALIGYSVSFDKTTFRLLRGESNLFYTLAKWENNKLHVELPENIDKQSPTMTLIYDENGQLLWAQRDVPWLMKMIQPDWLKSNGFHEIEADVNDTSLLLSGDHSIQQQLQEVREDDDDAEMTHSVAVNVYPATSRMPKLTIVVVDTIPVELKSSYMVWSWFIYVLSANLLLVIPLLWVAAWWSLRPIEALAKEVRELEEHNRELLNPATTRELTSLVRNLNRLLKSERERYDKYRTTLTDLTHSLKTPLXXLQXXLRSLRSEKMSVSDAEPVMLEQISRISQQIGYYLHRASMRGGTLLSRELHPVAPLLDNLTSALNKVYQRKGVNISLDISPEISFVGEQNDFVEVMGNVLDNACKYCLEFVEISARQTDEHLYIVVEDDGPGIPLSKREVIFDRGQRVDTLRPGQGVGLAVAREITEQYEGKIVAGESMLGGARMEVIFGRQHSAPKDE

The variants in the assay derive from B1. The assay is described as follows: enrichment ratio after two sorts for PhoP signalling (ratio (wild type AVST 3.29)); higher = more functional. The note with it: with PhoP (E. coli).
For NRVM, the enrichment ratio was not above 0.25.

For WTRI, the enrichment ratio is not above 0.25.

Take ANCQ: the enrichment ratio amounted to 3.31.

Take IRCR: the enrichment ratio is 0.646.

Turning to VHAF, the enrichment ratio is not above 0.25.

For TRKL, the enrichment ratio is not above 0.25.

Consider FWDM, for which the enrichment ratio was not above 0.25.

Take TSPK: the enrichment ratio was not above 0.25.

As to FRCP, the enrichment ratio is not above 0.25.

For HFFY, the enrichment ratio is not above 0.25.

Take TLYD: the enrichment ratio was not above 0.25.

Turning to PLCF, the enrichment ratio was not above 0.25.

Take IRAQ: the enrichment ratio is not above 0.25.

Consider NPYH, for which the enrichment ratio was not above 0.25.

Turning to MLSK, the enrichment ratio was not above 0.25.

Consider NKGT, for which the enrichment ratio was not above 0.25.

With TGWP, the enrichment ratio was not above 0.25.

As to AKVA, the enrichment ratio is 1.39.

Regarding WRWY, the enrichment ratio is not above 0.25.

For PKIM, the enrichment ratio is not above 0.25.

In the case of HWWC, the enrichment ratio was not above 0.25.

As for QCVV, the enrichment ratio was not above 0.25.

For PYRF, the enrichment ratio was not above 0.25.

Turning to WHLC, the enrichment ratio was not above 0.25.

Take YKSQ: the enrichment ratio is not above 0.25.

With LNLY, the enrichment ratio is not above 0.25.

With GTIY, the enrichment ratio was not above 0.25.

Turning to EATR, the enrichment ratio is not above 0.25.

Regarding NHTI, the enrichment ratio was not above 0.25.

For the variant NVMC, the enrichment ratio was not above 0.25.

WYDK: the enrichment ratio is not above 0.25.

For DCTS, the enrichment ratio is not above 0.25.

In the case of YWNS, the enrichment ratio was not above 0.25.

For the variant GWGC, the enrichment ratio was not above 0.25.

With HHTH, the enrichment ratio was not above 0.25.

Turning to WQFS, the enrichment ratio was not above 0.25.

With KKFH, the enrichment ratio was not above 0.25.

As to REEC, the enrichment ratio was not above 0.25.

As to EESC, the enrichment ratio is not above 0.25.

As for EMRP, the enrichment ratio was not above 0.25.

On to DMFF, for which the enrichment ratio was not above 0.25.

As to ATLE, the enrichment ratio was not above 0.25.

In the case of FEQN, the enrichment ratio was not above 0.25.

For YCYY, the enrichment ratio was not above 0.25.

As for HCGY, the enrichment ratio was not above 0.25.

As to WHRR, the enrichment ratio is not above 0.25.

For the variant FQHD, the enrichment ratio was not above 0.25.

Consider TDND, for which the enrichment ratio is not above 0.25.

For MVRQ, the enrichment ratio was not above 0.25.

For QVAS, the enrichment ratio was not above 0.25.

PYAE: the enrichment ratio was not above 0.25.

Consider MIHL, for which the enrichment ratio is 4.56.

Turning to TEVC, the enrichment ratio stood at 10.5.

For WDRP, the enrichment ratio is not above 0.25.

In the case of YLIT, the enrichment ratio is not above 0.25.

On to SMLT, for which the enrichment ratio was 0.638.

On to MTYH, for which the enrichment ratio amounted to 3.57.

Regarding YNGM, the enrichment ratio is not above 0.25.

Regarding MYFP, the enrichment ratio was not above 0.25.

On to APRT, for which the enrichment ratio is not above 0.25.

For WWVA, the enrichment ratio was not above 0.25.

On to MYPF, for which the enrichment ratio is not above 0.25.

For HWAF, the enrichment ratio is not above 0.25.

In the case of DFLY, the enrichment ratio was not above 0.25.

On to LTYM, for which the enrichment ratio was not above 0.25.

For the variant HLVR, the enrichment ratio is not above 0.25.

Turning to GSYC, the enrichment ratio was not above 0.25.

On to KAPM, for which the enrichment ratio is not above 0.25.

On to VTYI, for which the enrichment ratio is not above 0.25.

In the case of WEEK, the enrichment ratio is not above 0.25.

CLNV: the enrichment ratio was not above 0.25.

Turning to EGVI, the enrichment ratio is not above 0.25.

For the variant SPWN, the enrichment ratio is not above 0.25.

Consider QAFY, for which the enrichment ratio was found to be 1.67.

Consider GRWL, for which the enrichment ratio was not above 0.25.

As to LMYS, the enrichment ratio was not above 0.25.

With NHMR, the enrichment ratio is not above 0.25.

On to MYKS, for which the enrichment ratio was not above 0.25.

As for FGVR, the enrichment ratio was not above 0.25.

On to DTKH, for which the enrichment ratio was not above 0.25.

Regarding MFRF, the enrichment ratio is not above 0.25.

Consider ECFT, for which the enrichment ratio was not above 0.25.

Turning to DQCK, the enrichment ratio was not above 0.25.

On to AMKK, for which the enrichment ratio was not above 0.25.

As to WCGK, the enrichment ratio was not above 0.25.

Turning to VTSC, the enrichment ratio is not above 0.25.

On to QNVP, for which the enrichment ratio was not above 0.25.

As to HVDN, the enrichment ratio was not above 0.25.

For AQKS, the enrichment ratio was not above 0.25.

As for FLIG, the enrichment ratio was not above 0.25.

Consider DIRF, for which the enrichment ratio is not above 0.25.

Turning to FPTT, the enrichment ratio was not above 0.25.

As to VFRG, the enrichment ratio is not above 0.25.

Turning to AIDH, the enrichment ratio was not above 0.25.

Consider PILD, for which the enrichment ratio was not above 0.25.

Take NYDI: the enrichment ratio is not above 0.25.

Regarding MGVR, the enrichment ratio is not above 0.25.

HFVI: the enrichment ratio was not above 0.25.

On to QKHA, for which the enrichment ratio is not above 0.25.

Consider MSGE, for which the enrichment ratio stood at 6.35.

With NLEW, the enrichment ratio is not above 0.25.

NVHW: the enrichment ratio was not above 0.25.

With FLHW, the enrichment ratio is not above 0.25.

For HCAN, the enrichment ratio is not above 0.25.

As for QTFH, the enrichment ratio is not above 0.25.

As to SVTV, the enrichment ratio came to 11.3.

Turning to KTGD, the enrichment ratio is not above 0.25.

As to HYKW, the enrichment ratio is not above 0.25.

Take TDDG: the enrichment ratio is not above 0.25.

With IIRD, the enrichment ratio was not above 0.25.

As for GWFM, the enrichment ratio was not above 0.25.

In the case of MFEP, the enrichment ratio is not above 0.25.

For the variant LCWW, the enrichment ratio is not above 0.25.

Regarding AVWR, the enrichment ratio was not above 0.25.

Turning to IGTD, the enrichment ratio was not above 0.25.

Consider MDCG, for which the enrichment ratio is not above 0.25.

As for EVYF, the enrichment ratio is not above 0.25.

As to PILQ, the enrichment ratio is not above 0.25.

TWDY: the enrichment ratio is not above 0.25.

As to RHWH, the enrichment ratio was not above 0.25.

For TYDL, the enrichment ratio is not above 0.25.

Regarding AKRK, the enrichment ratio is not above 0.25.

In the case of RMSS, the enrichment ratio was not above 0.25.

For the variant QLNT, the enrichment ratio was not above 0.25.

For the variant MQAH, the enrichment ratio stood at 7.5.

On to MIAR, for which the enrichment ratio came to 4.26.

Consider RPLS, for which the enrichment ratio is not above 0.25.

Turning to NIKF, the enrichment ratio was not above 0.25.

For the variant TCCT, the enrichment ratio stood at 7.4.

With RHSD, the enrichment ratio was not above 0.25.

For CFYY, the enrichment ratio was not above 0.25.

Regarding KCYR, the enrichment ratio was not above 0.25.

In the case of SPCR, the enrichment ratio was not above 0.25.

As for QAII, the enrichment ratio was not above 0.25.

In the case of AQRD, the enrichment ratio was not above 0.25.

As for KASN, the enrichment ratio is not above 0.25.

In the case of LKYP, the enrichment ratio is not above 0.25.

For WDPD, the enrichment ratio is not above 0.25.

Turning to IDWM, the enrichment ratio was not above 0.25.

Consider NISG, for which the enrichment ratio was not above 0.25.

On to VADA, for which the enrichment ratio was not above 0.25.

For the variant MNPY, the enrichment ratio was not above 0.25.

For HVGI, the enrichment ratio is not above 0.25.

Consider VHYV, for which the enrichment ratio is not above 0.25.

In the case of IKPR, the enrichment ratio is not above 0.25.

As to WDHW, the enrichment ratio was not above 0.25.

TGDQ: the enrichment ratio is not above 0.25.

For STTM, the enrichment ratio was found to be 14.3.

For WEAP, the enrichment ratio is not above 0.25.

For FMEE, the enrichment ratio was not above 0.25.

On to NYLQ, for which the enrichment ratio was not above 0.25.

On to LWCK, for which the enrichment ratio is not above 0.25.

As for NGAP, the enrichment ratio was not above 0.25.
